# Test results: PubChem BioAssay AID686979 (National Center for Advancing Translational Sciences (NCATS), 2013)
# About 50,000 (12%) of roughly 420,000 compounds were called active. Inconclusive results, whose numbers are uncertain, are shown with a selection of clear calls. Calls follow the shape of the dose curve; as a rule, active = well fitted inhibition curve with a large enough effect; inconclusive = small, poorly fitted or top-dose-only effect; inactive = flat fitted curve, though single readings scatter. Potencies of inconclusive entries are left out as doubtful fits.
# Assay: qHTS for Inhibitors of human tyrosyl-DNA phosphodiesterase 1 (TDP1): qHTS in cells in presence of CPT; also: nearly all actives have a fitted effect of over 55% in size
# Conditions: chicken DT40 Tdp1-/-;hTDP1 cells + 20 nM CPT, ATP luminescence, 48 h; activity change, negative = growth inhibition: at 46.2 µM (top of the series) unless noted
# Summary of the method: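 Chicken DT40 Tdp1-/- cells complemented with human TDP1, 400 cells/well, exposed to compounds plus 20 nM camptothecin for at least 48 h at 37 C; viability read as ATP content by CellTiter-Glo luminescence.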
# % is scaled to controls: 0 for no effect and ±100 for the full control effect; potency is read from the fitted curve at half-maximal effect; tags tell the direction and shape of the fitted curve.
SMILES,Potency,"activity change, negative = growth inhibition"
Nn1cnc2c([nH]c3ccccc32)c1=O,inactive,
O=C(c1ccccc1F)N1CCN(S(=O)(=O)c2ccc3c(c2)OCCO3)CC1,active: 11.6 µM,
O=C1c2sc3nc4n(c(=O)c3c2CCC1Br)CCCCC4 (centres undefined),active: 3.26 µM,
CC1Cc2cc(S(=O)(=O)N3CCC(C(=O)N(C)Cc4ccccc4)CC3)ccc2N1C(=O)C1CC1 (centres undefined),"inconclusive [inhibitor, single point]",
COc1ccc(NC(=O)CCc2nnc3ccc(N4CCC(C)CC4)nn23)cc1,"inconclusive [inhibitor, single point]",
O=C1CC(Sc2nnc(-c3ccccc3)o2)C(=O)N1c1ccccc1 (centres undefined),active: 2.91 µM,
FC(F)(F)c1ccccc1Cc1c(-c2cccc(Cl)c2)nc2ccc(Br)cn12,"inconclusive [inhibitor, single point]",
CCOC(=O)c1cc(S(=O)(=O)N2CCN(Cc3ccccc3)CC2)cn1C,"inconclusive [inhibitor, single point]",
COC(=O)c1ccc(N2C(=O)CC(SCC(=O)Nc3ccc(OC)cc3)C2=O)cc1 (centres undefined),active: 14.6 µM,
Cc1cnc(CNc2ncnc3ccc(-c4ccoc4)cc23)cn1,"inconclusive [inhibitor, single point]",
COc1ccc(-c2cc(C(=O)NCCc3ccccc3)c3cc(C(C)C)ccc3n2)cc1,"inconclusive [inhibitor, single point]",
CCCCCN(C(=O)CCC(=O)OCC(=O)c1ccc(C(C)(C)C)cc1)c1c(N)n(CCCC)c(=O)[nH]c1=O,"inconclusive [inhibitor, single point]",
COc1ccc(Cl)cc1NC(=O)CCN1CCN(Cc2ccccc2)CC1,"inconclusive [inhibitor, partial curve]",
CCc1cc2c(N3CCN(C(=O)c4ccco4)CC3)ncnc2s1,"inconclusive [inhibitor, single point]",
O=S(=O)(c1ccc(Br)cc1)c1nnn2c1nc(NCc1cccs1)c1sccc12,"inconclusive [inhibitor, single point]",
Cc1ccc(S(=O)(=O)Cn2nnnc2C(C(C)C)N2CCN(c3nc4ccccc4s3)CC2)cc1 (centres undefined),inactive,
CCOc1ccc(S(=O)(=O)NC(C)(C)C)cc1-c1nc2c(C(C)(C)C)nn(C)c2c(=O)[nH]1,active: 20.6 µM,
CCOc1cc(/C=C2/C(=O)ON=C2C)ccc1OCc1ccccc1,inactive,
CC(=O)c1ccc(N2CCN(C3C(=O)c4ccccc4N3C(C)=O)CC2)cc1 (centres undefined),"inconclusive [inhibitor, single point]",
COc1ccccc1CNC(=O)c1cc2c(C)nn(Cc3ccc(F)cc3)c2s1,"inconclusive [inhibitor, single point]",
COc1ccc(-n2cc(C(=O)NCc3cccc(OC)c3)c3ccccc3c2=O)cc1,inactive,
Cc1cccc(C2=NN(c3ccccc3)[C@H](CO)[C@H]2c2ccc(Cl)cc2)c1,"inconclusive [inhibitor, single point]",

SMILES,Potency,"activity change, negative = growth inhibition"
O=S(=O)(c1ccc(-c2csc(Nc3ccc(F)cc3)n2)cc1)N1CCCC1,active: 11.6 µM,
COc1cc(C2C(C#N)=C(N)OC3=C2C(=O)CCC3)cc2c1OCO2 (centres undefined),inactive,
N#Cc1ccc(-c2csc(NC(=O)c3cc(-c4cccs4)nc4ccccc34)n2)cc1,"inconclusive [inhibitor, partial curve]",
CCOC(=O)c1ccccc1NC(=O)Cn1cnc2c(cnn2C(C)(C)C)c1=O,"inconclusive [inhibitor, single point]",
COc1ccccc1NS(=O)(=O)c1cccc(NC(=O)c2nc3nc(C)cc(C)n3n2)c1,active: 23.1 µM,
COc1ccc(-c2cc(C(=O)NC3CCCC3)c3ccccc3n2)cc1OC,"inconclusive [inhibitor, single point]",
COc1cccc(CC2(CO)CCCN(Cc3sc(N4CCCC4)nc3Cl)C2)c1 (centres undefined),"inconclusive [inhibitor, single point]",
CCOc1cc(-c2nc(-c3ccc(-c4ccc(OC)cc4)nc3OC)no2)cc(OCC)c1OCC,active: 18.4 µM,
COc1ccc2nc(NC(=O)c3ccc(S(=O)(=O)N4CCCC(C)C4)cc3)sc2c1 (centres undefined),active: 16.4 µM,
CC(=O)Nc1ccc(NC(=O)Cn2c(-c3ccc(F)cc3)cnc2SCC(=O)Nc2c(C)cccc2C)cc1,inactive,
Cc1nc(SCC(=O)c2cccs2)c2oc3ccccc3c2n1,"inconclusive [inhibitor, single point]",
CC1=C(C(=O)Nc2ccccc2C)C(c2ccccn2)n2nc(SCc3ccccc3F)nc2N1 (centres undefined),active: 6.51 µM,
Cc1c(C(=O)NCCCN2CCOCC2)sc2nc(-c3ccc(F)cc3)cn12,"inconclusive [inhibitor, single point]",
COc1ccc(Cl)c2c1[nH]c1nc(SCc3ccccn3)nnc12,"inconclusive [inhibitor, single point]",
COc1ccc(N=Cc2c(O)n(-c3cccc(C)n3)c(=O)c3ccccc23)cc1,"inconclusive [inhibitor, single point]",
O=C1C=C(c2n[nH]nc2-c2ccccc2)C[C@@H](c2ccc(F)cc2)C1,"inconclusive [inhibitor, single point]",
O=C(N=Nc1c(O)[nH]c2ccccc12)c1ccco1,,inconclusive: -32.9% [inhibitor]
COc1ccc(C(C)=O)cc1CN1C(=O)C(Cc2ccccc2)ON=C1c1ncccc1C (centres undefined),active: 20.6 µM,
Cc1nc2cc(NS(=O)(=O)c3ccccc3)ccc2n1C,"inconclusive [inhibitor, partial curve, poor fit]",
O=C(CNC(=O)c1ccc(F)cc1)Nc1ccccc1C(F)(F)F,inactive,
CN(C(=O)COC(=O)c1cc(=O)[nH]c2ccccc12)c1c(N)n(Cc2ccccc2)c(=O)[nH]c1=O,inactive,
CCOC(=O)C1=C(C)N=c2s/c(=C\c3ccc(OCC(=O)O)cc3)c(=O)n2C1c1ccc(Cl)cc1 (centres undefined),"inconclusive [inhibitor, single point]",
